Measured values: PubChem BioAssay AID493208 (National Center for Advancing Translational Sciences (NCATS), 2011)
The campaign covered roughly 44,000 compounds. About 340 (0.77%) were called active. Inconclusive results (about 5%) are left out. Calls follow the shape of the dose curve; as a rule, active = well fitted inhibition curve with a large enough effect; inconclusive = small, poorly fitted or top-dose-only effect; inactive = flat fitted curve, though single readings scatter. The list shows a part of the results.

experiment: Acumen qHTS Assay for Inhibitors of the mTORC1 Signaling Pathway in MEF (Tsc2-/-, p53-/-) Cells: Sytravon; settings: phospho-rpS6 immunofluorescence/PI, 24 h; series mostly up to 38.3 µM; activity change, negative = inhibition: at the top concentration;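 also: plate controls were DMSO for no effect and rapamycin for full effect; nearly all actives have a fitted effect of over 50% in size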
In short: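 Plate MEFs (Tsc2-/-, p53-/-, empty vector) in DMEM/10% FBS; after 24 h add compound, incubate 24 h at 37 degree Celsius; fix in PFA/TX-100, block, stain phospho-rpS6 and 10 uM PI; scan at 488 nm; report % positive cells.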

Activity change, negative = inhibition, inactive:
O=C(Nc1nnc(S(=O)(=O)N2CCc3ccccc32)s1)c1cccc(Cl)c1 4.58%
Cc1ccc(/C=C(\C#N)c2nc3ccccc3c(=O)[nH]2)cc1 6.32%
COCCOC(=O)c1c(-c2ccccc2)c(-c2ccccc2)nn(C)c1=O -4.59%
CCOc1ccc(CC(=O)Nc2c(C(=O)c3ccccc3)oc3ccc(OC)cc23)cc1OCC 0.184%
CCc1ccccc1NC(=O)Cn1c(=O)n(Cc2ccc(OC)cc2)c(=O)c2oc3ccccc3c21 0.791%
Cc1ccc(C)c(N2CCN(C(=O)c3cnn(-c4ccccc4Cl)c3C3CCN(C(=O)OC(C)(C)C)CC3)CC2)c1 -0.758%
O=C1OC(C(=O)Nc2cc(C(F)(F)F)ccc2Cl)Cc2ccccc21 (centres undefined) -4.7%
COc1ccc(Cc2nc3ccc(C(=O)NCc4ccccc4Cl)cc3o2)cc1 5.45%
O=C(COc1ccc(Cl)cc1)Nc1ccccc1OCc1cc(=O)n2ccccc2n1 9.83%
CCOc1ccc(CC(=O)NCC(c2cccs2)S(=O)(=O)c2ccc(F)c(C)c2)cc1 (centres undefined) 0%
CCc1ccc(NC(=O)C(CC)n2c(=O)c(-c3ccccc3NC(C)=O)nc3ccccc32)cc1 (centres undefined) -10.5%
Cc1ccc(NC(=O)C2CC(=O)N(c3ccc(OC(C)C)cc3)C2)cc1 (centres undefined) 14.5%
CCN(CC)c1ccc(NC(=O)C2CCN(S(=O)(=O)c3cnc[nH]3)CC2)c(C)c1 -3.24%
CCOC(=O)c1c(C)c(-c2ccccc2)n(CC(=O)NC(CC)Cc2ccccc2)c1C (centres undefined) -4.6%
Cc1ccc(Nc2nnc(-c3ccc(C)c(S(N)(=O)=O)c3)c3ccccc23)cc1 -9.48%
COc1cccc(C(=O)Nc2ccc3oc(-c4cccc5c(Br)cccc45)nc3c2)c1 -10.3%
COc1ccccc1N1CCN(C(=O)c2cnn(-c3ccc(F)cc3F)c2C2CCNCC2)CC1 -19.8%
CCc1ccccc1N(C)C(=O)c1ccc2c(=O)n3c(nc2c1)CCCCC3 2.35%
COc1ccc(S(=O)(=O)NCC(c2ccc(N(C)C)cc2)N2CCc3ccccc32)cc1OC (centres undefined) -0.359%
Cc1cccc(OCC(=O)Nc2cccc3cccnc23)c1C -1.85%
CCOC(=O)c1c(NC(=O)c2ccccc2OCC)sc2c1CCC(CC)C2 (centres undefined) 4.67%
COc1ccc(N2CCN(C(=O)CCc3c(C)nc4cc(-c5ccc(OC)cc5OC)nn4c3C)CC2)cc1 0.637%
CN(C)S(=O)(=O)c1ccc(C(=O)NCCSc2c(-c3ccc(Cl)cc3)[nH]c3ccccc23)cc1 -5.09%
CCCOc1ccc(C2C(=O)N(C3CCCCCC3)CC(=O)N2CCC)cc1OC (centres undefined) 12.4%
Cc1nnc(N2C(=O)c3oc4ccccc4c(=O)c3C2c2ccc(Cl)cc2)s1 (centres undefined) -3.96%
Cc1c(C(=O)OC2CCCCCC2)[nH]c2c1C(=O)CC(c1ccc(Cl)cc1)C2 (centres undefined) 2.75%
Cc1ccc2c(c1)C(=O)OC(C(=O)Nc1ncc(Cc3ccc(Cl)cc3)s1)C2 (centres undefined) 2.65%
Cc1cccc(C)c1-n1ncc(C(=O)NC2CCCC2)c1C1CCN(C(=O)OC(C)(C)C)CC1 -6.5%
CCOc1ccc(NC(=O)NCc2cccn2Cc2ccccc2)cc1 -21.2%
O=C(c1ccc2c(c1)CCN2S(=O)(=O)c1ccc(Cl)cc1)N1CCN(c2ccc(F)cc2)CC1 2.23%
O=C(COc1ccc(Cl)cc1Cl)Nc1cccc2cccnc12 0.459%
COc1ccc(Nc2c(-c3ccc(C)o3)nc3cc(C)ccn23)cc1 -14.7%
Cc1cc(C)cc(NC(=O)Cn2cc(C(=O)c3cccs3)c3ccccc32)c1 4.57%
Cc1ccc2oc(-c3ccc(C)c(NC(=O)/C=C/c4ccc(Cl)cc4)c3)nc2c1 4.22%
Cc1ccc2[nH]c3c(=O)n(CC(=O)N(CCN(C)C)Cc4ccccc4)ncc3c2c1 -8.79%
CC(=O)N1CCC(N(Cc2ccco2)C(=O)Nc2ccc(C)c(Cl)c2)CC1 -13.7%
CCOC(=O)CNC(=O)N1[C@H](c2cccs2)[C@@H](C)C(=O)[C@@H](C)[C@@H]1c1cccs1 -6.83%
COc1cc(NC(=O)c2nc3nc(C)cc(C(F)F)n3n2)c(OC)cc1Cl 0.313%
CCOc1ccc(N2CC(NC(=O)C3CCCCC3)CC2=O)cc1 (centres undefined) -4.54%
Cc1ccc(CNC(=O)c2ccc(CN3CC(=O)N4CCCCC4C3=O)cc2)cc1 (centres undefined) -4.12%
CCc1nnc(NC(=O)c2nc(SCc3ccccc3F)ncc2Cl)s1 2.04%
COc1ccc(S(=O)(=O)N2CCN(c3cccc(C)c3C)CC2)c2ccccc12 1.28%
COc1ccc2c(c1)c(=O)c(C(=O)c1ccc(F)cc1)cn2CC(=O)Nc1ccc2c(c1)OCO2 -9.15%
O=C(CCCCCn1c(=O)c2sccc2n(Cc2ccc(Cl)cc2)c1=O)NCc1ccc2c(c1)OCO2 -4.76%
Cc1ccc(S(=O)(=O)N(CC(=O)NCCSc2ccc(Cl)cc2)c2ccccc2C)cc1 -1.68%
COc1ccc(Cl)cc1C(=O)Nc1nnc2n1CCS2 -5.11%
Cc1ccc(NC(=O)C2CCN(c3nnc(C)c4c(C)n(-c5ccccc5)nc34)CC2)c(Cl)c1 0.757%
Cc1cc(Br)ccc1NC(=O)c1sc2nc3n(c(=O)c2c1C)CCCC3 8.39%
CC(C)CCNC(=O)Cn1c(-c2cccs2)cc2cc(F)ccc21 -8.67%
C=Cc1ccc(Cn2c(=O)n(-c3cccc(Cl)c3)c(=O)c3c4c(sc32)CN(C(C)=O)CC4)cc1 -0.922%
O=C(NCCc1ccc(Cl)cc1)c1ccc2c(c1)N(Cc1ccc(Cl)cc1)C(=O)CS2 -3.1%
COCCCNC(=O)CCn1c(=O)c2ccccc2n(CC(=O)Nc2cc(Cl)ccc2OC)c1=O -18.9%
CN1C(C(=O)Nc2cccc(O)c2)=CC(c2ccco2)=NS1(=O)=O 0.518%
CCCCN(CC)c1nc(-c2ccccc2F)nc2ccccc12 -9.06%
Cc1cccc(N2CCn3c2nc2c3c(=O)n(C/C=C/c3ccccc3)c(=O)n2C)c1 0.597%
Cc1cc(C)c(NC(=O)Cn2nnc(S(=O)(=O)c3ccc(C)c(C)c3)c2N)c(C)c1 -10.9%
CC(C)c1ccc(NC(=O)N2c3ccccc3Sc3ccccc32)cc1 2.88%
CCN(CC)S(=O)(=O)c1ccc2c(c1)c(=O)c(C(=O)N1CCN(c3cccc(Cl)c3)CC1)cn2C -1.81%
Cn1c(=O)oc2cc(S(=O)(=O)NC(Cc3ccccc3)C(=O)NCc3ccccc3Cl)ccc21 (centres undefined) -12.6%
CCOc1ccccc1CNC(=O)C1CCN(c2nc3ccccc3nc2C(F)(F)F)CC1 8.58%
COc1ccc(-c2n[nH]c3c2cnc2cc(OC)c(OC)cc23)cc1 0%
Cc1ccc(CSC2=Nc3ccccc3C3=NC(CC(=O)NCc4ccc5c(c4)OCO5)C(=O)N23)cc1 (centres undefined) -1.1%
COc1cc(OC)c(NC(=O)c2ccc3c(c2)N(Cc2ccc(C)cc2)CCS3)cc1Cl -4.83%
Cc1cccc(C2N=C(N)Nc3nc4ccccc4n32)c1 (centres undefined) -14.4%
COc1ccc(CCCc2nnc(SCC(=O)Nc3ccc(C)cc3)o2)cc1C -4.39%
Cc1ccc(-n2ncc(C(=O)NC3CCN(Cc4ccccc4)CC3)c2C2CCN(C(=O)OC(C)(C)C)CC2)cc1C -10.9%
O=C(Nc1ccc2nc(SCC(=O)N3CCCc4ccccc43)sc2c1)c1ccc(Cl)cc1 -1.1%
CCCS(=O)(=O)Nc1cc(-c2cn3ccc(C)cc3n2)ccc1C 2.33%
Fc1ccc(-c2nn(-c3ccc(Cl)cc3)c3c2cnc2ccc(F)cc23)cc1 0%
CCOc1ccccc1NC(=O)Cn1c(=O)n(Cc2cccs2)c(=O)c2cccnc21 -6.72%
CC(Sc1nc(=O)cc(N)n1CCc1ccccc1)C(=O)Nc1cccc(Cl)c1 (centres undefined) -0.569%
COc1ccc(-n2c(=O)c3ccccc3n(Cc3ccccc3Cl)c2=O)cc1 4.95%
COc1ccc(C(=O)Nc2nc3n(n2)C(c2ccc(Cl)cc2)C=C(c2ccccc2)N3)cc1OC (centres undefined) -0.293%
Cc1ccc(C)c(CN2C(=O)c3ccccc3S(=O)c3ccc(C(=O)N4CCOCC4)cc32)c1 (centres undefined) -1.26%
COc1ccccc1N1CCN(S(=O)(=O)c2c(C)sc3ncn(CC(=O)Nc4ccc(C)cc4Br)c(=O)c23)CC1 -1.94%
Cc1ccc(Nc2sc(C(=O)c3ccc(F)cc3)c(N)c2S(=O)(=O)c2ccc(C)cc2)cc1 -17.5%
Cc1ccc(CNC(=O)C2CCCN(c3ncnc4onc(-c5ccc(F)cc5)c34)C2)cc1 (centres undefined) 3.87%
CN1CC(=O)Nc2cc(C(=O)O)ccc21 9.62%
COc1ccc(OC)c(NC(=O)Cn2c(=O)cc(C)c3c(C)nn(-c4cccc(Cl)c4C)c32)c1 -4.9%
O=C(CN1C(=O)CCSc2ccccc21)Nc1ccc(C(F)(F)F)cc1 0.463%
CCOC(=O)c1ccccc1NC(=O)Cn1ccn2nc(-c3ccc(OCC)cc3)cc2c1=O 0%
CCOc1ccccc1C(=O)Nc1ccc(S(=O)(=O)N(Cc2ccccc2)c2ccccc2)cc1 -0.135%
Cc1ccc(-n2cc(C(=O)OCc3ccc(F)c(F)c3)c3ccccc3c2=O)cc1 -6.08%
Cc1ccccc1-c1noc(-c2nnn(-c3ccccc3C)c2N)n1 -6.6%
CCCN1Cc2cccc(C(=O)Nc3ccccc3C(=O)OC)c2C1=O -1.68%
CCOc1ccc(NC(=O)CN2CCN(CC(=O)Nc3ccc(F)cc3F)CC2)cc1 3.69%
COc1ccc(N2CCN(C(=O)c3cnn(-c4ccc(OC)cc4)c3C3CCN(C(=O)OC(C)(C)C)CC3)CC2)cc1 -4.86%
COc1cc(C(=O)N2CCN(C(=O)COc3cccc(C)c3)CC2)cc(OC)c1OC -28.2%
Cc1cccc(C(=O)N(Cc2ccccc2F)C2CCS(=O)(=O)C2)c1 (centres undefined) 2.02%
COc1ccc(Cc2nc3c4cnn(-c5cccc(F)c5)c4ncn3n2)cc1 5.49%
COC(=O)c1c(NC(=O)COc2cccc(C(F)(F)F)c2)sc2c1CCCC2 -2.84%
CCCNC(=O)N1CCCN(S(=O)(=O)c2ccc3c(ccn3CC)c2)CC1 0.0748%
Cc1c(Cl)cccc1-c1ccc(/C=C(\C#N)c2nc3ccccc3[nH]2)o1 -28.8%
CCN(CC)c1ccc(NS(=O)(=O)c2cc(-c3cc(C)no3)ccc2C)c(C)c1 -10.9%
